Test results reported in the supplement of paper PMC12230231.
± gives the standard deviation of the averaged measurements. Restriction of a single-cycle SIVsab GFP reporter by TRIM5α v1-loop variants in CRFK cells. Human variants: read share among cells still uninfected after two challenges over input, higher = gained restriction. Rhesus variants: share among infected cells over input, higher = lost restriction. Reporter dose not given per row. No active / inactive call per row; the paper calls a change when both replicates lie above its controls (mean + 2 SD of stop or wild-type variants, or the top frameshift score). Residues outside the varied loop are taken from Swiss-Prot. The paper reads the human single-substitution scores as noise; they and the rhesus combinations repeat poorly (rank correlation 0.3 to 0.4), indel scores repeat only for the top variants, rhesus substitutions well (0.9).

system: SIVsab (simian immunodeficiency virus of sabaeus monkeys), single-cycle GFP reporter, in CRFK cells; test: enrichment among uninfected cells over input (fold); higher = stronger restriction; conditions: library: human / rhesus combinations
Experimental: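 Pools of CRFK cells expressing variants of the TRIM5α v1 loop were challenged with the single-cycle reporter, sorted by GFP and sequenced; mean of two replicates.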

Row | Sequence | enrichment
1 | MASGILVNVKEEVTCPICLELLTQPLSLDCGHSFCQACLTANHKKSMLDKGESSCPVCRISYQPENIRPNRHVANIVEKLREVKLSPEGQKVDHCARHGEKLLLFCQEDGKVICWLCERSQEHRGHHTFLTEEVAREYQVKLQAALEMLRQKQQEAEELEADIREEKASWKTQIQYDKTNVLADFEQLRDILDWEESNELQNLEKEEEDILKSLTNSETEMVQQTQSLRELISDLEHRLQGSVMELLQGVDGVIKRTENVTLKKPETFPKNQRRVFRAPDLKGMLEVFRELTDVRRYWVDVTVAPNNISCAVISEDKRQVSSPKPQIIYGARGTRYTFQSFVNFNYCTGILGSQSITSGKHYWEVDVSKKTAWILGVCAGFQPDAMCNIEKNENYQPKYGYWVIGLEEGVKCSAFQDSSFHTPSVPFIVPLSVIICPDRVGVFLDYEACTVSFFNITNHGFLIYKFSHCSFSQPVFPYLNPRKCGVPMTLCSPSS [human TRIM5α, 330-340 = GARGTRYTFQSFV] | 0.268 ± 0.1

same assay, conditions: library: insertions and deletions

Row | Sequence | enrichment
2 | MASGILVNVKEEVTCPICLELLTQPLSLDCGHSFCQACLTANHKKSMLDKGESSCPVCRISYQPENIRPNRHVANIVEKLREVKLSPEGQKVDHCARHGEKLLLFCQEDGKVICWLCERSQEHRGHHTFLTEEVAREYQVKLQAALEMLRQKQQEAEELEADIREEKASWKTQIQYDKTNVLADFEQLRDILDWEESNELQNLEKEEEDILKSLTNSETEMVQQTQSLRELISDLEHRLQGSVMELLQGVDGVIKRTENVTLKKPETFPKNQRRVFRAPDLKGMLEVFRELTDVRRYWVDVTVAPNNISCAVISEDKRQVSSPKPQIIYGARGTRYQTFVYCTGILGSQSITSGKHYWEVDVSKKTAWILGVCAGFQPDAMCNIEKNENYQPKYGYWVIGLEEGVKCSAFQDSSFHTPSVPFIVPLSVIICPDRVGVFLDYEACTVSFFNITNHGFLIYKFSHCSFSQPVFPYLNPRKCGVPMTLCSPSS [human TRIM5α, 3-codon deletion at 341] | 0.56 ± 0.56
3 | MASGILVNVKEEVTCPICLELLTQPLSLDCGHSFCQACLTANHKKSMLDKGESSCPVCRISYQPENIRPNRHVANIVEKLREVKLSPEGQKVDHCARHGEKLLLFCQEDGKVICWLCERSQEHRGHHTFLTEEVAREYQVKLQAALEMLRQKQQEAEELEADIREEKASWKTQIQYDKTNVLADFEQLRDILDWEESNELQNLEKEEEDILKSLTNSETEMVQQTQSLRELISDLEHRLQGSVMELLQGVDGVIKRTENVTLKKPETFPKNQRRVFRAPDLKGMLEVFRELTDVRRYWVDVTVAPNNISCAVISEDKRQVSSPKPQIIYGARGTRYQTFVNTGILGSQSITSGKHYWEVDVSKKTAWILGVCAGFQPDAMCNIEKNENYQPKYGYWVIGLEEGVKCSAFQDSSFHTPSVPFIVPLSVIICPDRVGVFLDYEACTVSFFNITNHGFLIYKFSHCSFSQPVFPYLNPRKCGVPMTLCSPSS [human TRIM5α, 4-codon deletion at 342] | 1.09 ± 0.36
4 | MASGILVNVKEEVTCPICLELLTQPLSLDCGHSFCQACLTANHKKSMLDKGESSCPVCRISYQPENIRPNRHVANIVEKLREVKLSPEGQKVDHCARHGEKLLLFCQEDGKVICWLCERSQEHRGHHTFLTEEVAREYQVKLQAALEMLRQKQQEAEELEADIREEKASWKTQIQYDKTNVLADFEQLRDILDWEESNELQNLEKEEEDILKSLTNSETEMVQQTQSLRELISDLEHRLQGSVMELLQGVDGVIKRTENVTLKKPETFPKNQRRVFRAPDLKGMLEVFRELTDVRRYWVDVTVAPNNISCAVISEDKRQVSSPKPQIIYGARGTRYQTCTGILGSQSITSGKHYWEVDVSKKTAWILGVCAGFQPDAMCNIEKNENYQPKYGYWVIGLEEGVKCSAFQDSSFHTPSVPFIVPLSVIICPDRVGVFLDYEACTVSFFNITNHGFLIYKFSHCSFSQPVFPYLNPRKCGVPMTLCSPSS [human TRIM5α, 6-codon deletion at 339] | 1.11 ± 0.49
5 | MASGILVNVKEEVTCPICLELLTQPLSLDCGHSFCQACLTANHKKSMLDKGESSCPVCRISYQPENIRPNRHVANIVEKLREVKLSPEGQKVDHCARHGEKLLLFCQEDGKVICWLCERSQEHRGHHTFLTEEVAREYQVKLQAALEMLRQKQQEAEELEADIREEKASWKTQIQYDKTNVLADFEQLRDILDWEESNELQNLEKEEEDILKSLTNSETEMVQQTQSLRELISDLEHRLQGSVMELLQGVDGVIKRTENVTLKKPETFPKNQRRVFRAPDLKGMLEVFRELTDVRRYWVDVTVAPNNISCAVISEDKRQVSSPKPQIIYGARARGTRYQTFVNFNYCTGILGSQSITSGKHYWEVDVSKKTAWILGVCAGFQPDAMCNIEKNENYQPKYGYWVIGLEEGVKCSAFQDSSFHTPSVPFIVPLSVIICPDRVGVFLDYEACTVSFFNITNHGFLIYKFSHCSFSQPVFPYLNPRKCGVPMTLCSPSS [human TRIM5α, 2-codon duplication at 331] | 0.636 ± 0.25
6 | MASGILVNVKEEVTCPICLELLTQPLSLDCGHSFCQACLTANHKKSMLDKGESSCPVCRISYQPENIRPNRHVANIVEKLREVKLSPEGQKVDHCARHGEKLLLFCQEDGKVICWLCERSQEHRGHHTFLTEEVAREYQVKLQAALEMLRQKQQEAEELEADIREEKASWKTQIQYDKTNVLADFEQLRDILDWEESNELQNLEKEEEDILKSLTNSETEMVQQTQSLRELISDLEHRLQGSVMELLQGVDGVIKRTENVTLKKPETFPKNQRRVFRAPDLKGMLEVFRELTDVRRYWVDVTVAPNNISCAVISEDKRQVSSPKPQIIYGARGTRYQTFVNFNYCTCTGILGSQSITSGKHYWEVDVSKKTAWILGVCAGFQPDAMCNIEKNENYQPKYGYWVIGLEEGVKCSAFQDSSFHTPSVPFIVPLSVIICPDRVGVFLDYEACTVSFFNITNHGFLIYKFSHCSFSQPVFPYLNPRKCGVPMTLCSPSS [human TRIM5α, 2-codon duplication at 345] | 0.548 ± 0.25
7 | MASGILVNVKEEVTCPICLELLTQPLSLDCGHSFCQACLTANHKKSMLDKGESSCPVCRISYQPENIRPNRHVANIVEKLREVKLSPEGQKVDHCARHGEKLLLFCQEDGKVICWLCERSQEHRGHHTFLTEEVAREYQVKLQAALEMLRQKQQEAEELEADIREEKASWKTQIQYDKTNVLADFEQLRDILDWEESNELQNLEKEEEDILKSLTNSETEMVQQTQSLRELISDLEHRLQGSVMELLQGVDGVIKRTENVTLKKPETFPKNQRRVFRAPDLKGMLEVFRELTDVRRYWVDVTVAPNNISCAVISEDKRQVSSPKPQIIYGARGTRYQRGTRYQTFVNFNYCTGILGSQSITSGKHYWEVDVSKKTAWILGVCAGFQPDAMCNIEKNENYQPKYGYWVIGLEEGVKCSAFQDSSFHTPSVPFIVPLSVIICPDRVGVFLDYEACTVSFFNITNHGFLIYKFSHCSFSQPVFPYLNPRKCGVPMTLCSPSS [human TRIM5α, 6-codon duplication at 332] | 0.155 ± 0.035
8 | MASGILVNVKEEVTCPICLELLTQPLSLDCGHSFCQACLTANHKKSMLDKGESSCPVCRISYQPENIRPNRHVANIVEKLREVKLSPEGQKVDHCARHGEKLLLFCQEDGKVICWLCERSQEHRGHHTFLTEEVAREYQVKLQAALEMLRQKQQEAEELEADIREEKASWKTQIQYDKTNVLADFEQLRDILDWEESNELQNLEKEEEDILKSLTNSETEMVQQTQSLRELISDLEHRLQGSVMELLQGVDGVIKRTENVTLKKPETFPKNQRRVFRAPDLKGMLEVFRELTDVRRYWVDVTVAPNNISCAVISEDKRQVSSPKPQIIYGARGTRYQTFVNFNYCTGIYCTGILGSQSITSGKHYWEVDVSKKTAWILGVCAGFQPDAMCNIEKNENYQPKYGYWVIGLEEGVKCSAFQDSSFHTPSVPFIVPLSVIICPDRVGVFLDYEACTVSFFNITNHGFLIYKFSHCSFSQPVFPYLNPRKCGVPMTLCSPSS [human TRIM5α, 5-codon duplication at 344] | 0.344 ± 0.48
9 | MASGILVNVKEEVTCPICLELLTQPLSLDCGHSFCQACLTANHKKSMLDKGESSCPVCRISYQPENIRPNRHVANIVEKLREVKLSPEGQKVDHCARHGEKLLLFCQEDGKVICWLCERSQEHRGHHTFLTEEVAREYQVKLQAALEMLRQKQQEAEELEADIREEKASWKTQIQYDKTNVLADFEQLRDILDWEESNELQNLEKEEEDILKSLTNSETEMVQQTQSLRELISDLEHRLQGSVMELLQGVDGVIKRTENVTLKKPETFPKNQRRVFRAPDLKGMLEVFRELTDVRRYWVDVTVAPNNISCAVISEDKRQVSSPKPQIIYGARGTRYQTFVNFTRYQTFVNFNYCTGILGSQSITSGKHYWEVDVSKKTAWILGVCAGFQPDAMCNIEKNENYQPKYGYWVIGLEEGVKCSAFQDSSFHTPSVPFIVPLSVIICPDRVGVFLDYEACTVSFFNITNHGFLIYKFSHCSFSQPVFPYLNPRKCGVPMTLCSPSS [human TRIM5α, 9-codon duplication at 334] | 0.117 ± 0.099
10 | MASGILVNVKEEVTCPICLELLTQPLSLDCGHSFCQACLTANHKKSMLDKGESSCPVCRISYQPENIRPNRHVANIVEKLREVKLSPEGQKVDHCARHGEKLLLFCQEDGKVICWLCERSQEHRGHHTFLTEEVAREYQVKLQAALEMLRQKQQEAEELEADIREEKASWKTQIQYDKTNVLADFEQLRDILDWEESNELQNLEKEEEDILKSLTNSETEMVQQTQSLRELISDLEHRLQGSVMELLQGVDGVIKRTENVTLKKPETFPKNQRRVFRAPDLKGMLEVFRELTDVRRYWVDVTVAPNNISCAVISEDKRQVSSPKPQIIYGFVNFNYCTGILGSQSITSGKHYWEVDVSKKTAWILGVCAGFQPDAMCNIEKNENYQPKYGYWVIGLEEGVKCSAFQDSSFHTPSVPFIVPLSVIICPDRVGVFLDYEACTVSFFNITNHGFLIYKFSHCSFSQPVFPYLNPRKCGVPMTLCSPSS [human TRIM5α, 8-codon deletion at 331] | 0.822 ± 0.79
11 | MASGILVNVKEEVTCPICLELLTQPLSLDCGHSFCQACLTANHKKSMLDKGESSCPVCRISYQPENIRPNRHVANIVEKLREVKLSPEGQKVDHCARHGEKLLLFCQEDGKVICWLCERSQEHRGHHTFLTEEVAREYQVKLQAALEMLRQKQQEAEELEADIREEKASWKTQIQYDKTNVLADFEQLRDILDWEESNELQNLEKEEEDILKSLTNSETEMVQQTQSLRELISDLEHRLQGSVMELLQGVDGVIKRTENVTLKKPETFPKNQRRVFRAPDLKGMLEVFRELTDVRRYWVDVTVAPNNISCAVISEDKRQVSSPKPQIIYGARGTRIIYGARGTRYQTFVNFNYCTGILGSQSITSGKHYWEVDVSKKTAWILGVCAGFQPDAMCNIEKNENYQPKYGYWVIGLEEGVKCSAFQDSSFHTPSVPFIVPLSVIICPDRVGVFLDYEACTVSFFNITNHGFLIYKFSHCSFSQPVFPYLNPRKCGVPMTLCSPSS [human TRIM5α, 9-codon duplication at 327] | 0.523 ± 0.46
12 | MASGILVNVKEEVTCPICLELLTQPLSLDCGHSFCQACLTANHKKSMLDKGESSCPVCRISYQPENIRPNRHVANIVEKLREVKLSPEGQKVDHCARHGEKLLLFCQEDGKVICWLCERSQEHRGHHTFLTEEVAREYQVKLQAALEMLRQKQQEAEELEADIREEKASWKTQIQYDKTNVLADFEQLRDILDWEESNELQNLEKEEEDILKSLTNSETEMVQQTQSLRELISDLEHRLQGSVMELLQGVDGVIKRTENVTLKKPETFPKNQRRVFRAPDLKGMLEVFRELTDVRRYWVDVTVAPNNISCAVISEDKRQVSSPKPQIIYGARGTRYQTFVNFNYCTGNYCTGILGSQSITSGKHYWEVDVSKKTAWILGVCAGFQPDAMCNIEKNENYQPKYGYWVIGLEEGVKCSAFQDSSFHTPSVPFIVPLSVIICPDRVGVFLDYEACTVSFFNITNHGFLIYKFSHCSFSQPVFPYLNPRKCGVPMTLCSPSS [human TRIM5α, 5-codon duplication at 343] | 0.402 ± 0.018
